Measurements taken from PubChem BioAssay (NCATS).
The inconclusive results got no clear call from the source; some entries with a clear call stand among them for comparison. Potencies of inconclusive entries are left out as doubtful fits. Activity calls are given as the source filed them. Unless noted, calls come from the whole dose curve; as a rule, active = well fitted inhibition curve with a large enough effect; inconclusive = small, poorly fitted or top-dose-only effect; inactive = no such curve, though single readings can be large or run the other way.

biological target: Cytochrome P450 2D6 (Homo sapiens) (UniProt P10635); assay: qHTS Assay for Inhibitors and Substrates of Cytochrome P450 2D6 (AID 891); conditions: recombinant CYP2D6, luciferin-ME EGE luminescence; series mostly up to 11.4 µM;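 note: luciferin methyl ether substrate demethylated by CYP2D6 with NADPH regeneration; nearly all actives have a fitted effect of over 60% in size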
Chain of UniProt P10635 (P10635 whole entry, looked up): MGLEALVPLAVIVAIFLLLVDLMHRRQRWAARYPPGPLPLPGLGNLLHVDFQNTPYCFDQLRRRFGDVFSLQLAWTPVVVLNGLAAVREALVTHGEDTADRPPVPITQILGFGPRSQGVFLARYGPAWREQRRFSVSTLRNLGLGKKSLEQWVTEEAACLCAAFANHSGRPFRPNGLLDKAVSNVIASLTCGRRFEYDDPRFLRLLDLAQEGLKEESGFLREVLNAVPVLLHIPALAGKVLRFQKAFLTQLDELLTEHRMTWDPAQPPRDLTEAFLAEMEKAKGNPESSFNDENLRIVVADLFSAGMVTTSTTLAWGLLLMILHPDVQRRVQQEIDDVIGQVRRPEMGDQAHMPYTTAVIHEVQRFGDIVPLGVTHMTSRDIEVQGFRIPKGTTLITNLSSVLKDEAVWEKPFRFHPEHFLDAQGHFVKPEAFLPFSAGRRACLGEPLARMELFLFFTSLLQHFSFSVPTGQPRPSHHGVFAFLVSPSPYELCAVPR
How it was run: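 Luminescent read-out of luciferin formed by 5 nM human CYP2D6 demethylating 30 uM Luciferin-ME EGE (Km level) over 60 min at room temperature after NADPH regeneration addition. Data normalized to full inhibition by 1.43 uM quinidine.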
Potency is the fitted concentration of half-maximal effect; tags give direction and shape of the fitted curve or compound fluorescence and quenching.

SMILES | Potency
CC(=O)Oc1ccc(/C=C\C(=O)C[C@@H]2O[C@@H](Oc3cc(OC(C)=O)c4c(c3)O[C@@H](c3ccc(OC(C)=O)cc3)CC4=O)[C@H](OC(C)=O)[C@H](OC(C)=O)[C@@H]2OC(C)=O)cc1 | inactive
NNC(=O)CCSc1ccccc1 | inconclusive [inhibitor, partial curve]
CCN(CC)C[C@@H](O)CN1CCCCc2nc(C)c(C)cc21 | inconclusive [inhibitor, single point]
CC(=O)OC[C@@H]1O[C@@H](O/N=C2/C[C@@H](O)[C@@H](O)[C@@H]3[C@@H]4C(=O)N(c5cccc(Oc6ccccc6)c5)C(=O)[C@H]4CC[C@@H]23)[C@H](OC(C)=O)[C@H](OC(C)=O)[C@@H]1OC(C)=O | inconclusive [inhibitor, single point]
CCOC(=O)CCCCC1=CC2=CC(=O)C(C)(O)C(=O)C2=CO1 (stereo not given) | inactive
CC12C=C(/C=C/C=C/c3ccco3)C(C)(C1)C(/C=C/c1ccco1)CC2=O (stereo not given) | inactive
CCOC(=O)OCC1OC(c2ccc(C(C)=O)cc2)C=CC1Oc1ccc(-c2ccccc2)cc1 (stereo not given) | inactive
c1ccc2c(c1)nnn2CN1CCOCC1 | inactive
CC(=O)OCC1OC(C#CC2=CCCCC2)C=CC1OC(C)=O (stereo not given) | inactive
C[C@@H](C(=O)Nc1ccc2ccccc2c1)[C@H]1C[C@]1(C)[C@H](NC(=O)OCc1ccccc1)c1ccccc1 | inconclusive [inhibitor, full curve]
CO[C@H]1COC(=O)[C@@H](Cc2ccccc2)NC(=O)[C@@H](C)COC(=O)CCC[C@@H]1C | inactive
C/C=C/OC(=O)NC(c1ccccc1)[C@@]1(C(=O)OCC)CCCC1=O (stereo not given in full) | inactive
CC(=O)OC[C@@H]1O[C@@H](O/N=C2/C[C@@H](O)[C@@H](O)[C@@H]3[C@@H]4C(=O)N(C[C@@H]5CCCO5)C(=O)[C@H]4CC[C@@H]23)[C@H](OC(C)=O)[C@H](OC(C)=O)[C@@H]1OC(C)=O | inconclusive [inhibitor, partial curve]
CC(C)C[C@@H](CC(=O)N[C@@H](CCCN)CC(=O)N[C@@H]1CCNC[C@H]1C(=O)N[C@H](CC(=O)N[C@@H](CCC(=O)O)CC(=O)O)Cc1c[nH]c2ccccc12)NC(=O)[C@@H]1CCCC[C@H]1N | inactive
N=C(c1ccc2ccccc2c1)c1ccccc1Cc1ccccc1 | inconclusive [inhibitor, single point]
CC(C)C[C@@H](CC(=O)N[C@H](CC(=O)N[C@@H]1CCCC[C@H]1C(=O)N[C@H](CC(=O)N[C@@H](CCC(=O)O)CC(=O)O)CC(C)C)C(C)C)NC(=O)[C@@H]1CCCC[C@H]1N | inactive

test system: not listed separately; assay: qHTS Assay for Identification of Small Molecule Agonists for Hypoxia Response Element Signaling Pathway (AID 914; active = well fitted activation curve with a large enough effect in the signal ratio, with a control signal flat, not every such curve was filed as active; inconclusive = small, poorly fitted or top-dose-only effect, or effect the other way, or a change in a side signal; the % refers to the signal ratio; for activation: top concentration of the series differs between compounds; % of control where 0% means no effect); conditions: ME-180 (cervical carcinoma) HRE-bla reporter, beta-lactamase ratio, CoCl2, 17 h; activation: hits give high values
How it was run: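 HRE-bla ME-180 cells with beta-lactamase reporter under hypoxia response element, compounds with EC50 CoCl2 for 17 hours at 37 C. CCF4 substrate, 460nm/530nm emission ratio gave %Activity; AC50 from titration series.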

SMILES | Potency | activation
N=c1ccn2c(n1)O[C@@H]1[C@@H](O)[C@H](CO)O[C@H]12 | inconclusive [inhibitor, partial curve] | –
C#CCCCO/N=C1/C[C@@H](O)[C@@H](O)[C@@H]2[C@@H]3C(=O)N(C4CCCCC4)C(=O)[C@H]3CC[C@@H]12 | – | inactive: -13.1%
COc1ccc(C(=O)N2CCC3(CC2)CCN(c2ccccc2)CC3)cc1 | – | inactive: -13.6%
CC(C)NC(=O)N1CCC2(CC1)CCN(C(=O)c1cc(C(F)(F)F)cc(C(F)(F)F)c1)CC2 | – | inactive: 9.62%
